# Assay results taken from the supplement of paper PMC8728848.
# This is one part of the list.
# What was measured:
# Test in all cases: glycan array binding signal (z-score within array); higher = stronger binding
# Details in all cases: glycan notation: IUPAC condensed, linker removed
# [1] = molecular target: GalNAc(b1-4)GlcNAc(b1-2)Man
# In short: (§1)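 The binding signal is a Z-score computed within each array and averaged over linkers. Arrays of the same protein sequence at different concentrations or buffers were also averaged together. Data originate from 3228 arrays in the Consortium for Functional Glycomics database, kept only where the protein sequence was available.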
# [2] = molecular target: GalNAc(b1-4)GlcNAc(b1-2)Man(a1-3)[GalNAc(b1-4)GlcNAc(b1-2)Man(a1-6)]Man(b1-4)GlcNAc(b1-4)GlcNAc
# In short: as §1
# [3] = molecular target: GalNAc(b1-4)GlcNAc(b1-3)GalNAc(b1-4)GlcNAc
# In short: as §1
# GalNAc(b1-4)GlcNAc6S = molecular target: GalNAc(b1-4)GlcNAc6S
# In short: as §1
# GalNAc(b1-6)GalNAc = molecular target: GalNAc(b1-6)GalNAc
# In short: as §1
# GalNAc3S(b1-4)GlcNAc = molecular target: GalNAc3S(b1-4)GlcNAc
# In short: as §1
# GalNAc3S(b1-4)GlcNAc3S = molecular target: GalNAc3S(b1-4)GlcNAc3S
# In short: as §1
# [4] = molecular target: GalNAc3S(b1-4)[Fuc(a1-3)]GlcNAc
# In short: as §1
# GalNAc4S6S(b1-4)GlcNAc = molecular target: GalNAc4S6S(b1-4)GlcNAc
# In short: as §1
# GalNAc6S(b1-4)GlcNAc = molecular target: GalNAc6S(b1-4)GlcNAc
# In short: as §1
# Glc(a1-4)Glc = molecular target: Glc(a1-4)Glc
# In short: as §1
# [5] = molecular target: Glc(a1-4)Glc(a1-4)Glc(a1-4)Glc
# In short: as §1
# Glc(a1-6)Glc(a1-6)Glc = molecular target: Glc(a1-6)Glc(a1-6)Glc
# In short: as §1
# [6] = molecular target: Glc(a1-6)Glc(a1-6)Glc(a1-6)Glc
# In short: as §1
# Glc(b1-4)Glc = molecular target: Glc(b1-4)Glc
# In short: as §1
# Glc(b1-6)Glc = molecular target: Glc(b1-6)Glc
# In short: as §1
# GlcA(b1-3)Gal = molecular target: GlcA(b1-3)Gal
# In short: as §1
# GlcA(b1-3)GlcNAc = molecular target: GlcA(b1-3)GlcNAc
# In short: as §1
# GlcA(b1-6)Gal = molecular target: GlcA(b1-6)Gal
# In short: as §1
# [7] = molecular target: GlcA3S(b1-3)Gal(b1-4)GlcNAc(b1-2)Man
# In short: as §1
# [8] = molecular target: GlcA3S(b1-3)Gal(b1-4)GlcNAc(b1-3)Gal(b1-4)Glc
# In short: as §1
# [9] = molecular target: GlcNAc(a1-3)Gal(b1-4)GlcNAc
# In short: as §1
# [10] = molecular target: GlcNAc(a1-4)Gal(b1-3)GlcNAc
# In short: as §1
# [11] = molecular target: GlcNAc(a1-4)Gal(b1-4)GalNAc
# In short: as §1
# [12] = molecular target: GlcNAc(a1-4)Gal(b1-4)GlcNAc
# In short: as §1
# [13] = molecular target: GlcNAc(a1-4)Gal(b1-4)GlcNAc(b1-3)Gal(b1-4)Glc
# In short: as §1
# [14] = molecular target: GlcNAc(a1-4)Gal(b1-4)GlcNAc(b1-3)Gal(b1-4)GlcNAc
# In short: as §1
# [15] = molecular target: GlcNAc(a1-4)Gal(b1-4)GlcNAc(b1-3)Gal(b1-4)GlcNAc(b1-3)Gal(b1-4)GlcNAc
# In short: as §1
# [16] = molecular target: GlcNAc(a1-4)Gal(b1-4)GlcNAc(b1-3)Gal(b1-4)[Fuc(a1-3)]GlcNAc(b1-3)Gal(b1-4)[Fuc(a1-3)]GlcNAc
# In short: as §1
# [17] = molecular target: GlcNAc(a1-6)Gal(b1-4)GlcNAc
# In short: as §1
# [18] = molecular target: GlcNAc(b1-2)Gal(b1-3)GalNAc
# In short: as §1
# [19] = molecular target: GlcNAc(b1-2)Man(a1-3)[GlcNAc(b1-2)Man(a1-6)]Man(b1-4)GlcNAc(b1-4)GlcNAc
# In short: as §1
# [20] = molecular target: GlcNAc(b1-2)Man(a1-3)[GlcNAc(b1-2)Man(a1-6)]Man(b1-4)GlcNAc(b1-4)[Fuc(a1-6)]GlcNAc
# In short: as §1
# [21] = molecular target: GlcNAc(b1-2)Man(a1-3)[GlcNAc(b1-4)][GlcNAc(b1-2)Man(a1-6)]Man(b1-4)GlcNAc(b1-4)GlcNAc
# In short: as §1
# [22] = molecular target: GlcNAc(b1-2)Man(a1-3)[GlcNAc(b1-4)][GlcNAc(b1-2)Man(a1-6)]Man(b1-4)GlcNAc(b1-4)[Fuc(a1-6)]GlcNAc
# In short: as §1
# [23] = molecular target: GlcNAc(b1-2)[GlcNAc(b1-4)]Man(a1-3)[GlcNAc(b1-2)Man(a1-6)]Man(b1-4)GlcNAc(b1-4)GlcNAc
# In short: as §1
# [24] = molecular target: GlcNAc(b1-2)[GlcNAc(b1-4)]Man(a1-3)[GlcNAc(b1-4)][GlcNAc(b1-2)Man(a1-6)]Man(b1-4)GlcNAc(b1-4)GlcNAc
# In short: as §1
# [25] = molecular target: GlcNAc(b1-2)[GlcNAc(b1-4)]Man(a1-3)[GlcNAc(b1-4)][GlcNAc(b1-2)[GlcNAc(b1-6)]Man(a1-6)]Man(b1-4)GlcNAc(b1-4)GlcNAc
# In short: as §1
# [26] = molecular target: GlcNAc(b1-2)[GlcNAc(b1-4)]Man(a1-3)[GlcNAc(b1-4)][GlcNAc(b1-2)[GlcNAc(b1-6)]Man(a1-6)]Man(b1-4)GlcNAc(b1-4)[Fuc(a1-6)]GlcNAc
# In short: as §1
# [27] = molecular target: GlcNAc(b1-2)[GlcNAc(b1-6)]Man(a1-6)[GlcNAc(b1-2)Man(a1-3)]Man(b1-4)GlcNAc(b1-4)GlcNAc
# In short: as §1
# [28] = molecular target: GlcNAc(b1-2)[GlcNAc(b1-6)]Man(a1-6)[GlcNAc(b1-2)Man(a1-3)]Man(b1-4)GlcNAc(b1-4)[Fuc(a1-6)]GlcNAc
# In short: as §1
# [29] = molecular target: GlcNAc(b1-2)[GlcNAc(b1-6)]Man(a1-6)[GlcNAc(b1-4)][GlcNAc(b1-2)Man(a1-3)]Man(b1-4)GlcNAc(b1-4)GlcNAc
# In short: as §1
# GlcNAc(b1-3)Fuc = molecular target: GlcNAc(b1-3)Fuc
# In short: as §1
# GlcNAc(b1-3)Gal = molecular target: GlcNAc(b1-3)Gal
# In short: as §1
# [30] = molecular target: GlcNAc(b1-3)Gal(b1-3)GalNAc
# In short: as §1
binder,measurement,setting,value
GNL (Galanthus nivalis) (protein) MGHHHHHHHHYGTLENGHWLMVGMSIFSKDRTVELRMQDDGKLAIYYNDHCAWQSTAQQVNNAKGAVMQGDGNFCIYDKNGKATWHTNTAAPSGDSHTFVSVQDDGNLVLYKNNGATPIWSSKSNK,glycan array binding signal (z-score),[1],-0.227
same,glycan array binding signal (z-score),[2],-0.248
same,glycan array binding signal (z-score),[3],-0.147
same,glycan array binding signal (z-score),GalNAc(b1-4)GlcNAc6S,-0.12
same,glycan array binding signal (z-score),GalNAc(b1-6)GalNAc,-0.249
same,glycan array binding signal (z-score),GalNAc3S(b1-4)GlcNAc,-0.219
same,glycan array binding signal (z-score),GalNAc3S(b1-4)GlcNAc3S,-0.224
same,glycan array binding signal (z-score),[4],-0.151
same,glycan array binding signal (z-score),GalNAc4S6S(b1-4)GlcNAc,-0.211
same,glycan array binding signal (z-score),GalNAc6S(b1-4)GlcNAc,-0.21
same,glycan array binding signal (z-score),Glc(a1-4)Glc,-0.169
same,glycan array binding signal (z-score),[5],-0.192
same,glycan array binding signal (z-score),Glc(a1-6)Glc(a1-6)Glc,-0.292
same,glycan array binding signal (z-score),[6],-0.121
same,glycan array binding signal (z-score),Glc(b1-4)Glc,-0.201
same,glycan array binding signal (z-score),Glc(b1-6)Glc,-0.242
same,glycan array binding signal (z-score),GlcA(b1-3)Gal,-0.224
same,glycan array binding signal (z-score),GlcA(b1-3)GlcNAc,-0.157
same,glycan array binding signal (z-score),GlcA(b1-6)Gal,-0.274
same,glycan array binding signal (z-score),[7],-0.177
same,glycan array binding signal (z-score),[8],-0.253
same,glycan array binding signal (z-score),[9],-0.231
same,glycan array binding signal (z-score),[10],-0.261
same,glycan array binding signal (z-score),[11],-0.161
same,glycan array binding signal (z-score),[12],-0.25
same,glycan array binding signal (z-score),[13],-0.25
same,glycan array binding signal (z-score),[14],-0.214
same,glycan array binding signal (z-score),[15],-0.257
same,glycan array binding signal (z-score),[16],-0.175
same,glycan array binding signal (z-score),[17],-0.229
same,glycan array binding signal (z-score),[18],-0.314
same,glycan array binding signal (z-score),[19],8.74
same,glycan array binding signal (z-score),[20],1.13
same,glycan array binding signal (z-score),[21],-0.118
same,glycan array binding signal (z-score),[22],-0.205
same,glycan array binding signal (z-score),[23],0.114
same,glycan array binding signal (z-score),[24],-0.276
same,glycan array binding signal (z-score),[25],-0.284
same,glycan array binding signal (z-score),[26],-0.216
same,glycan array binding signal (z-score),[27],-0.286
same,glycan array binding signal (z-score),[28],-0.176
same,glycan array binding signal (z-score),[29],-0.206
same,glycan array binding signal (z-score),GlcNAc(b1-3)Fuc,-0.196
same,glycan array binding signal (z-score),GlcNAc(b1-3)Gal,-0.239
same,glycan array binding signal (z-score),[30],-0.141
